From PMC12136788
The other results are listed elsewhere or left out.

B1: 117583245_117583365_974_3pUTR_ENSMUSG00000025571_ENSMUST00000138299|mouse|control|control (ssRNA)
RNA: GGGAGUUCUACAGUCCGACGAUCCCUCCAUUCCCUUCCUUCUGCACAGCACUGCUGGAUCCGUUCUGCUUAGCACUUAAUGCUGAGUUCACAGUGUCUCCAUUCCCUUGACUGAACCCACAAUUGGUACUUCCUGUGGCAGGGCAACAGAGGAUUGAGCAUCA
B2: 37820842_37820962_92_5pUTR_ENSMUSG00000029833_ENSMUST00000120428|mouse|control|control (ssRNA)
RNA: GGGAGUUCUACAGUCCGACGAUCGGCCGGAAGACGCGGAGCUGUCAACGGGGACCGGUUCCCGCACCGCGACGCCGCCGCGCGGGCCGAUAGGCAAACCGCCACCGAGACGCUCGAUUCCGCCCAGCGCGCCCGCCCGUGCCUCAACAGAGGAUUGAGCAUCA
B3: chr1:220355683:220355684:-_ENSG00000118873_ENST00000358951|hu_mus|motif|central (ssRNA)
RNA: GGGAGUUCUACAGUCCGACGAUCGCUGUGGCACAUCUCUUCAGUGGAGCUUUCUCCAUGCAAACACUUCCAGAAAAAGAAACUGCCGGGAGCCACACACUCCUCCUCUCCGACCUUCCUUAUGCUCAGUGCAUCCUUCUCAUACAACAGAGGAUUGAGCAUCA
B4: 10099421_10100641_605_CDS_ENSG00000071127_ENST00000499869|human|control|control (ssRNA)
RNA: GGGAGUUCUACAGUCCGACGAUCGCUCUGCUUGAUGUCCACGCUGUUGAUGACUUUGUUGUGUCCUGUAAUCUCGCCCACAGAAGAGCCACUAUCCCAGAGGAAGACUGCUCCAAACUUCUCCCUUCCUUCCCCGACCACGGCCAACAGAGGAUUGAGCAUCA
B5: chr13:29242638:29242639:+_ENSG00000132963_ENST00000380842|hu_hu|FALSE|FALSE (ssRNA)
RNA: GGGAGUUCUACAGUCCGACGAUCGAAUUCCAUCUGUAAUUUUAGCGGAGCAAAUAGACCCUGAAUGUUUCUCAGUGUGGAAAAAUUCAUUUUAUCUUGGUUGAGCUGGAAAUUUUUUUCUGAUAAUUCAAGGGGAUGACUAGGCAACAGAGGAUUGAGCAUCA
B6: chr4:17845017:17845018:+_ENSG00000109805_ENST00000514176|hu_mus|hu_hu_hu_mus_False|1_1 (ssRNA)
RNA: GGGAGUUCUACAGUCCGACGAUCGCUCUCUUAACUUGUAUCUUCAUUAAGGAACUCUGCAAGGUUAAGUUUACUUUUCUGUAGCGCAGCUGUUUUGGCUCGUCUGGGUAAUCUCAUCUUCAUUUCUGAUGGUGGUUUGGAACUCAACAGAGGAUUGAGCAUCA
B7: 34959321_34959441_1601_3pUTR_ENSMUSG00000029106_ENSMUST00000114338|mouse|control|control (ssRNA)
RNA: GGGAGUUCUACAGUCCGACGAUCCUUCCGUUCUGCCCCUCCUCAGAAGCGUCAUCACCCCGGCCAGAGUGCAGCCAUCUUGUCUUCUCUCGCUGCUGCUUCUGAAAACUGUGCCUGAGCGGCGAGCAAGUGCCCGAAUCGCCACAACAGAGGAUUGAGCAUCA
B8: 98547814_98548547_4467_CDS_ENSG00000196367_ENST00000456197|human|control|control (ssRNA)
RNA: GGGAGUUCUACAGUCCGACGAUCCCUUCUCAAAGCUGUACAAGAAAGCAGGAUUCAAGAUAUGCUGCAGAACUUUAGCUUUUAAUUCAUCUCCGAAGUUGGGGUCGUUGAAGUCUACAAAGCGAAAGAACAGGGCACGUUUCUCAACAGAGGAUUGAGCAUCA
B9: chr4:25749455:25749456:-_ENSG00000091490_ENST00000264868|hu_hu|hu_hu_hu_mus_False|8_58 (ssRNA)
RNA: GGGAGUUCUACAGUCCGACGAUCGCACUAUGACCUCUAGAAAAAUCCACAGGGGGAAAAAAUGUAAACCAAUGUACAAAGCUAUUGCCUUCCCUGUGUGUGGAGUGUUUGUCUCAAGGCUCCUUCUUGCCUUAUAAUUUGGGACAACAGAGGAUUGAGCAUCA
B10: chr8:112747817:112747818:+_ENSMUSG00000046441_ENSMUST00000056972|mus_mus|FALSE|FALSE (ssRNA)
RNA: GGGAGUUCUACAGUCCGACGAUCAAUGACCUUUGGUUUUGGCUUAAAGCUGUUCUUUCUUAUUAGUUGAAGUAGUUAUAGCUAGCAAAAGUCAUACAAAAAAAAAAUCUGUAUUUCAUUUCAAUUCAAAGAAAAUGAAGCCACCAACAGAGGAUUGAGCAUCA
B11: chr7:141438946:141438947:+_ENSG00000106028_ENST00000265304|hu_mus|hu_hu_hu_mus_True|1_98 (ssRNA)
RNA: GGGAGUUCUACAGUCCGACGAUCGACGAAAUACCUGACAGGUCUUCCUUCGAAACAUGGCUUCUGUUUUUCUUACAACCUAAUCUUUAGGCUUUUCCUAAAGGAAAGAAAGAAAAGAGAAAAAUGAUAAAUCAAGAACUUCCGCAACAGAGGAUUGAGCAUCA
B12: chr3:179287964:179287965:+_ENSG00000136518_ENST00000429709|hu_hu|hu_hu_hu_mus_True|78_78 (ssRNA)
RNA: GGGAGUUCUACAGUCCGACGAUCCUUGAGUGGUGAGAUGGCCUCCAUGUUCUCCCUCGGAACACGCAGGGCAUUGGUGUCUAUGUAGUAGGUGGGCCCGCCCUGCUUGCCUUUGUCACCAUCAAUCUCCAUCAUUGUACUUCCCAACAGAGGAUUGAGCAUCA
B13: chr13:30959905:30959906:-_ENSMUSG00000021357_ENSMUST00000021785|mus_hu|FALSE|FALSE (ssRNA)
RNA: GGGAGUUCUACAGUCCGACGAUCAUGGAUACUUCCAAACAAGUCAGGGGAAGAAACAUCAACAGAGAGAUGUGUAGUAUCUAUAUCUGCAUCAGGCUUGGUGCUCAACUGUUCCAGACAGUAUAUAAAAACCUGCAUUAUAUUCAACAGAGGAUUGAGCAUCA
B14: chr12:73313434:73313435:-_ENSMUSG00000021087_ENSMUST00000021497|mus_hu|FALSE|FALSE (ssRNA)
RNA: GGGAGUUCUACAGUCCGACGAUCAAAUAUCCUAAGAGUACAAGGAACAGCCUAAAAACAGCUGUUUUAAGGUUUGUCUCUAAGAUUAUGGUACUGGAGGGAGGGGGGAAAGACAAUCAAUUUGCAGUAAUGAGUAAGAAGAGACAACAGAGGAUUGAGCAUCA
B15: chr3:160143891:160143892:+_ENSG00000113810_ENST00000344722|hu_mus|FALSE|FALSE (ssRNA)
RNA: GGGAGUUCUACAGUCCGACGAUCAGUAAGAACGUUAGCUUCCAGUUCUUUAAUUUGUACACACAGAUACUCUUCUUGCUCUGAUAAGCCCUGGAUGCUUGCAGCGAACUUUUCCAGUGUAUUUCUCAUGUCUCGUUCACUGUGCAACAGAGGAUUGAGCAUCA
B16: chr7:54825262:54825263:-_ENSG00000132432_ENST00000352861|hu_hu|hu_hu_hu_mus_False|48_88 (ssRNA)
RNA: GGGAGUUCUACAGUCCGACGAUCCUGCCGGCUGGGCUCCACAAACUUUACCUGAUCAUCCAUGUUUGUUGGAUGGCGGAUUGAGAGUGCCAGGGACCGUAGCUCAGGAGAGAACCGAGCCCAACGGAACCGGAAGCUGGCAACCAACAGAGGAUUGAGCAUCA
B17: chr4:140556289:140556290:+_ENSMUSG00000036622_ENSMUST00000037055|mus_mus|mus_mus_mus_hu_False|28_68 (ssRNA)
RNA: GGGAGUUCUACAGUCCGACGAUCGAUGGAGCUCACCAGGCCCCCUUUUGCCGUGCAGAACCCUGUGCGAGUCACCACUGCCAGGACGUGCGGUCCCACAUAGGCCCGGGCCUGCAGGAUGAGGGUCCCGCAGAAGAGUGUGUGCAACAGAGGAUUGAGCAUCA
B18: chr6:41757443:41757444:+_ENSG00000214736_ENST00000398881|hu_mus|hu_hu_hu_mus_False|58_78 (ssRNA)
RNA: GGGAGUUCUACAGUCCGACGAUCGAACCGUGCAGAGGCAACAUCUCAGCCGACACUGUGGACUCAAGGGGCAGUGGGAAACUAGGCAGGCAAGGAGAGGGAGUCAACUUCAGCUGCCACUCAGGUAGGAUCUUGUGGUCACAGCAACAGAGGAUUGAGCAUCA
B19: chr3:119450855:119450856:-_ENSMUSG00000028134_ENSMUST00000029780|mus_mus|FALSE|FALSE (ssRNA)
RNA: GGGAGUUCUACAGUCCGACGAUCUGUGGUGCCACUAAGAGGUGUAUUUGCUGUCUGGACCGCUGUCACAGCUUGAAGAACUACUUGCGCACGUUGGUUUAAUGUAUUAUCUGUCUUUAGUUCUUUGUGAUUGGAGUACUGGAUCAACAGAGGAUUGAGCAUCA
B20: chr12:56499883:56499884:+_ENSMUSG00000021024_ENSMUST00000021412|mus_hu|FALSE|FALSE (ssRNA)
RNA: GGGAGUUCUACAGUCCGACGAUCGGUAAUGUGGCGGUCAAAACCGGCGCUGGAACCACGGGACAUGUUGGUAGAAGCACUACUUUAAACACAAUCCCUGGGCCCCGUAGCUCCCGCACCAGGCACACAAGCACCUCCCGGAAGCAACAGAGGAUUGAGCAUCA
B21: chr4:17845017:17845018:+_ENSG00000109805_ENST00000514176|hu_mus|hu_hu_hu_mus_False|18_48 (ssRNA)
RNA: GGGAGUUCUACAGUCCGACGAUCGCUCUCUUAACUUGUAUCUUCAUUAAGGAACUCUGCAAGGUUAAGUUUACUUUUCUGUAGCGCGCGGUUUUGGGCUCGUCUGGGUAAUCUCAUUUCAUUUCUGGAUGGUGGUUCAUGAUCCAACAGAGGAUUGAGCAUCA
B22: chr8:27252840:27252841:+_ENSMUSG00000013878_ENSMUST00000014022|mus_mus|FALSE|FALSE (ssRNA)
RNA: GGGAGUUCUACAGUCCGACGAUCCAUGUCACAGCCAUCAAAGACAACCAAAUCAGUAUGAACCUCAGUAGUUAGGCGUCUAAUACACAUUUCCUCAUUCUGCCCAAGGCACGAUGAAUCUGAGCCAAAUAAUGCCAUCUACAACAACAGAGGAUUGAGCAUCA

Molecular target: T1, UNK ZnF1-3 (human, UniProt Q9C0B0 31-174)
T1 sequence: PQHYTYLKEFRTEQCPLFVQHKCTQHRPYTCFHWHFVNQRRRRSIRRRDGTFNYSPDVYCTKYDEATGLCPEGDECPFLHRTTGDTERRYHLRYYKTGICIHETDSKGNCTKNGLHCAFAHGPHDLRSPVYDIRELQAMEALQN
Experiment: nsRBNS (natural sequence RNA bind-n-seq); RBNS binding buffer (assumed for nsRBNS): 25 mM Tris pH 7.5, 150 mM KCl, 3 mM MgCl2, 0.01% Triton X-100, 500 ug/ml BSA, 20 U/ml SUPERase-In, 4 C; UNK is unkempt and MSI1 is Musashi-1; names of the RNAs are library labels; protein concentration not given here; high values mean tight binding

In order of falling binding signal:
1. B14  2.1 enrichment R
2. B18  1.97 enrichment R
3. B4  1.49 enrichment R
4. B8  1.41 enrichment R
5. B5  1.3 enrichment R
6. B7  1.29 enrichment R
7. B22  1.11 enrichment R
8. B16  1.07 enrichment R
9. B13  0.968 enrichment R
10. B3  0.961 enrichment R
11. B9  0.913 enrichment R
12. B11  0.779 enrichment R
13. B17  0.723 enrichment R
14. B1  0.704 enrichment R
15. B2  0.69 enrichment R
16. B10  0.679 enrichment R
17. B19  0.675 enrichment R
18. B20  0.659 enrichment R
19. B6  0.444 enrichment R
20. B21  0.427 enrichment R
21. B15  0.409 enrichment R
22. B12  0.398 enrichment R
